Structures are written as SMILES. The whole screen tested about 150,000 compounds, of which about 540 (0.36%) showed an effect of 50% or more. This is one part of the list.

The test system of this test is Plasmodium falciparum. As to the kind of experiment: Primary screen in NF54 nanoGlo assay, in single point, at 2uM, 72h; a lower Z score goes with more inhibition. The conditions noted are these: timepoint 72 hour. In kind it is functional, Erythrocyte.
For `CNC(=NCc1c(F)c(F)cc(F)c1F)NCc1ccco1`, the “% Inhibition” value was -8% and the Z score came out at 1.49.
Taken in the same sequence, the figures for `CCC(CO)NC(=O)NC(C)c1ccc(-c2cccnc2)cc1` (stereo unspecified) were 8% and -1.41.
Taken in the same sequence, the figures for `C[C@H](Oc1ccc(F)cc1F)C(=O)NCc1nnc(N)s1` were -2% and 0.49.
The matching figures for `CCc1nnc(CNC(=O)c2cccc(-c3ncc(F)c(N(C)C)n3)c2)o1`: -10% and 1.12.
As to `O=C(Nc1cc[nH]n1)c1ccc2[nH]cnc2c1`, the “% Inhibition” value is listed as -7% and the Z score was 1.32.
With `CC(=O)N1C[C@@H](O)C[C@@H]1C(=O)NC(C)(C(N)=O)c1cccc(Cl)c1` (stereo partly specified), the “% Inhibition” value is on record as -15% and the Z score was 1.95.
Taken in the same sequence, the figures for `O=C(CO)N1CC[C@]23C(=O)N(Cc4cn(nn4)CCCOc4cccc(c4)[C@@H]12)c1ccccc13` were -7% and 0.97.
Taken in the same sequence, the figures for `COc1ccc(C(=O)N(Cc2cccc(Br)c2)[C@H]2CCS(=O)(=O)C2)cc1Cl` were -11% and 0.96.
Taken in the same sequence, the figures for `N[C@@H](CN1CCCC1)c1ccc(F)cc1` were 10% and -1.88.
On to `Fc1ccc2oc(CN3CCCC4(C3)OCCO4)cc2c1`, for which the “% Inhibition” value was -1% and the Z score is 0.13.
In the case of `C=C(C)CC1NC2CC(C)(C)C1c1c(Br)ccc(Br)c12` (stereo unspecified), the “% Inhibition” value is listed as -1% and the Z score is 0.14.
In the case of `CCOc1ccc2ncc(C#N)c(N3CCC4(CC3)OCCO4)c2c1`, the “% Inhibition” value is -7% and the Z score is 0.97.
`Cn1nc(Cc2ccccc2)n(C2CCN(Cc3cccs3)CC2)c1=O`: the “% Inhibition” value is recorded as -1% and the Z score worked out at 0.16.
Consider `Cc1nccn1[C@@H](C)C(=O)NCCCn1ccnc1`, for which the “% Inhibition” value worked out at 3% and the Z score was -0.55.
For the molecule `Fc1ccc(CN2CCCn3nc(CN4CC[C@H](F)C4)cc3C2)cc1Cl`, the “% Inhibition” value is listed as -3% and the Z score amounted to 0.43.
`COc1ccc(CNC(=O)Nc2ccc3c(c2)N(C(=O)c2ccccc2)CCC3)cc1OC`: the “% Inhibition” value is listed as 21% and the Z score is reported as -4.61.
Take `O=C(NCc1sncc1Br)NCC1CC1`: the “% Inhibition” value is reported as -5% and the Z score was determined as 0.8.
Taken in the same sequence, the figures for `CS(=O)(=O)Nc1cccc(C(F)(F)F)n1` were -7% and 1.26.
In the case of `Cc1ccc(CN2CCNC(=O)[C@@H]2CC(=O)NCc2n[nH]c3c2CCC3)o1`, the “% Inhibition” value is -3% and the Z score is reported as 0.57.
Taken in the same sequence, the figures for `CC(C)(C)n1nnc(CN2CC(Cc3ccccc3Cl)C2)n1` were -4% and 0.43.
The matching figures for `O=C(Nc1ccc(C(F)(F)F)cc1)N1CCN(c2nc(-c3cccs3)nc3cc(Cl)ccc23)CC1`: -9% and 1.34.
The matching figures for `O=C(C[C@H]1COc2ccccc2N1Cc1ccc(F)cc1)NCc1ccc(F)cc1`: -11% and 1.52.
In the case of `CC(C)C1=NO[C@H](C(=O)NC2(CN3CCCCC3)CCCCC2)C1`, the “% Inhibition” value is listed as -10% and the Z score amounted to 1.63.
Taken in the same sequence, the figures for `Clc1ccc(CNC2=NCCNC23CCOCC3)cc1` were -13% and 1.7.
The matching figures for `Cc1nc([C@H](C)NCc2cc3cc4c(cc3nc2OCc2cccc(F)c2)OCO4)cs1`: -10% and 1.42.
On to `CC[C@@H](C(=O)N(C)Cc1ccc(-n2cccn2)cc1)N1CCOCC1`, for which the “% Inhibition” value is listed as -13% and the Z score is reported as 1.91.
For `C=C1C(C)(C)[C@H]2CC[C@]1(c1nc(C3CC3)n[nH]1)C2`, the “% Inhibition” value is on record as -8% and the Z score is listed as 0.73.
The matching figures for `Cc1nc(CNC(=O)C[C@H]2CCOC2)cs1`: -14% and 1.86.
Consider `Cc1cnc(NCC2(CO)CC3(CCC3)C2)nc1`, for which the “% Inhibition” value is given as 7% and the Z score is recorded as -0.88.
Regarding `Cc1cccc(C2c3cc(OC(C)C(=O)NCCN4CCCC4)ccc3CCN2C(=O)C2CCCC2)c1` (stereo unspecified), the “% Inhibition” value is recorded as -6% and the Z score stood at 0.55.
The matching figures for `Cc1cc(NC(=O)N(CCC#N)CCC(F)(F)F)ccc1Br`: -2% and 0.34.
For the molecule `COc1ccc(N2C(=O)CN(C(=O)C3CCCCC3)CC2(C)C)cc1`, the “% Inhibition” value was determined as 10% and the Z score is -1.44.
On to `c1csc(CN2CCC(Nc3nnc(C4CCC4)o3)CC2)c1`, for which the “% Inhibition” value is given as -5% and the Z score stood at 0.56.
The matching figures for `Cc1ccc(CN(C)[C@@H](C)C(=O)NC(=O)NC2CCCCC2)o1`: -10% and 1.15.
For `CS(=O)(=O)c1ccc(CN2CCOC[C@@H]2CC2CCC2)o1`, the “% Inhibition” value is on record as -4% and the Z score came out at 0.57.
`Cc1cc(Nc2ccc(N(C)C)nc2)n2ncnc2n1`: the “% Inhibition” value is -2% and the Z score is on record as 0.35.
The matching figures for `Cc1ccc(NC(=O)CC(C)NCC(C)(O)c2cccs2)c(C)c1` (stereo unspecified): 0% and -0.04.
The matching figures for `CCCN(CCOC)C(=O)NCc1cc(O)ncn1`: -6% and 1.08.
The matching figures for `COc1ccc(NC(=O)C2CC(=O)OC2c2ccc3c(c2)OCCO3)cc1` (stereo unspecified): 5% and -0.55.
`O=S(=O)(N[C@H]1CCCC12CCOCC2)c1cccc2ccoc12`: the “% Inhibition” value is -8% and the Z score was 1.58.
As to `O=C1NC2(CCC(c3ccccc3)CC2)C(=O)N1CN1CCC[C@H](C(F)(F)F)C1` (stereo partly specified), the “% Inhibition” value is -8% and the Z score worked out at 1.46.
Taken in the same sequence, the figures for `O=C(c1cc(-c2ccc(O)cc2)n[nH]1)N1CC[C@@H]2OCc3cnnn3[C@H]2C1` were -27% and 2.85.
Taken in the same sequence, the figures for `CCCc1noc(CN[C@H](c2c(C)nn(C)c2C)C(F)(F)F)n1` were -6% and 0.77.
The matching figures for `COc1ccc(CN2CCN(CC(=O)Nc3ccccc3C(=O)NCc3ccco3)CC2)cc1F`: 4% and -0.44.
As to `N#Cc1ccccc1-c1nc2ccc(-c3ccc4c(c3)OCO4)cc2o1`, the “% Inhibition” value is on record as -11% and the Z score amounted to 1.58.
The matching figures for `CCOc1cccc(-n2cc(-c3ccccc3)nc2NC(=O)CN(C[C@H]2CCCO2)C(=O)c2cccc(OC)c2)c1`: -11% and 1.06.
As to `COc1cccc(CO[C@@H]2CN(C(=O)CCCn3cncn3)CC(=O)N(CC(C)C)C2)c1`, the “% Inhibition” value is 7% and the Z score is listed as -0.88.
Taken in the same sequence, the figures for `COCCNC(=O)c1cnc2ccc(F)cc2c1O` were 4% and -0.56.
Taken in the same sequence, the figures for `CC1CCN(c2cc3c(cc2S(=O)(=O)N(C)C)C(=O)Nc2ccccc2O3)CC1` were -10% and 1.42.
For the molecule `Cc1cnccc1CN(C)C(=O)CCCn1cccn1`, the “% Inhibition” value is recorded as -6% and the Z score is 1.08.
For the molecule `CC(C)[C@@H]1N(C(=O)Nc2ccn(CC(=O)N(C)C)n2)CC12CCCC2`, the “% Inhibition” value is recorded as -2% and the Z score is 0.4.
Consider `Cc1nnsc1CNC(=O)[C@H](C)c1n[nH]c(=O)c2ccccc12`, for which the “% Inhibition” value was -11% and the Z score is 1.44.
Take `Cn1nccc1C1(O)CCN(C(=O)OC2CCC2)CC1`: the “% Inhibition” value was 0% and the Z score was -0.07.

Usually % Inhibition stands for the change of the read-out against control, counted positive when it falls.

(Values after ChEMBL document CHEMBL4888484, “Replenishing the malaria drug discovery pipeline: Screening and hit evaluation of the MMV Hit Generation Library 1 (HGL1) against asexual blood stage Plasmodium falciparum ,using a nano luciferase reporter read-out” (2022).)
